Source: PMC4336329 (PLoS ONE, 2015)
Out of some 310,000 compounds screened, about 14,000 (4.5%) showed an effect of 50% or more. The effect is printed as a negative number. Some of the results follow.

These molecules were tested against human ether-à-go-go-related gene (hERG) potassium channel (human, UniProt Q12809) (assay: primary screen, population patch clamp on CHO cells stably expressing hERG).
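Also: peak tail current of the secondary pulse compared with the same well before compound.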

Chain of human ether-à-go-go-related gene (hERG) potassium channel (Q12809 whole entry, looked up): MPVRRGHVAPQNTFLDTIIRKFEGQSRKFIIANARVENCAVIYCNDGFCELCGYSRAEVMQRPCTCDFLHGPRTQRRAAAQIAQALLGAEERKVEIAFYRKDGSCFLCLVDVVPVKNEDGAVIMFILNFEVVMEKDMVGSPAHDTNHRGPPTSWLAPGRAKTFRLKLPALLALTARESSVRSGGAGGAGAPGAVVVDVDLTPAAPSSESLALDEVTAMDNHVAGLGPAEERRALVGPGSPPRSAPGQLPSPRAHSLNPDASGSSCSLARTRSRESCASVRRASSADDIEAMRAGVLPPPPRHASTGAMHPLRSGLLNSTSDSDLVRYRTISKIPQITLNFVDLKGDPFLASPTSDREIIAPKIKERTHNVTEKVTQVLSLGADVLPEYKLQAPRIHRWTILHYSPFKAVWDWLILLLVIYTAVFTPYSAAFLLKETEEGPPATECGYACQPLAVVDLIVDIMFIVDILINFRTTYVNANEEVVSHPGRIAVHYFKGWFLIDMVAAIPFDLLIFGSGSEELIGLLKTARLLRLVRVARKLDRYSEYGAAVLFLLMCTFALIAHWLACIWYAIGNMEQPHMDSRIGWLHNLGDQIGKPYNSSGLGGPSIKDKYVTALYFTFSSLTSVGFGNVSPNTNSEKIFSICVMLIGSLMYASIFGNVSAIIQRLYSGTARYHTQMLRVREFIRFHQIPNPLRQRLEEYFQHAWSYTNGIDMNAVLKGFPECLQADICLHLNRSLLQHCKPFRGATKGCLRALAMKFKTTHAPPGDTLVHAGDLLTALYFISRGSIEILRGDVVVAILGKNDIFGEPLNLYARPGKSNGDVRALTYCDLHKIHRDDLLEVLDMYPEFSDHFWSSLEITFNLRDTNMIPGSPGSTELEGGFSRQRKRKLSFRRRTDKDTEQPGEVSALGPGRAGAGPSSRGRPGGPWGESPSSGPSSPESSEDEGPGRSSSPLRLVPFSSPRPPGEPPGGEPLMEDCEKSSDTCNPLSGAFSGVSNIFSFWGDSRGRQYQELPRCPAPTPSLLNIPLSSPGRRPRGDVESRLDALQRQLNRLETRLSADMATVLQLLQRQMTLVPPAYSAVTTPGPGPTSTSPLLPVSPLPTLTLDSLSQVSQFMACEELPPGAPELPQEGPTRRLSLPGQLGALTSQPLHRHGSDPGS

Row | Compound | hERG current change (%, negative = inhibition) at 10uM [%]
1 | COc1cccc(S(=O)(=O)NCc2ccc(C(=O)Nc3ccc(C)cc3)cc2)c1 | 4.4
2 | Cc1ccc(S(=O)(=O)NCC(=O)OCc2nnc(-c3ccccc3)o2)cc1C | -23.3
3 | CC(=O)c1cccc(NC(=O)C(=O)Nc2cccc3ccccc23)c1 | 13.3
4 | O=C1CCN(Cc2ccccc2)N1 | 21.9
5 | Cc1cc(NC(=O)CN2CCN(c3cccc(Cl)c3)CC2)no1 | 8.46
6 | CCc1ccc2[nH]cc(S(=O)(=O)c3ccc(C)c(C)c3)c(=O)c2c1 | 16.8
7 | O=C(CSc1ccc2nnc(-c3cccc(F)c3)n2n1)N1CCCc2ccccc21 | -36.9
8 | C=CCNC(=S)NNC(=O)COc1ccc(Cl)cc1Cl | 2.93
9 | Cc1ccc(CCNS(=O)(=O)c2ccc3c(c2)C(C)(C)C(=O)N3C)cc1 | -1.74
10 | Cc1cc(C)nc(N2CCCC(C(=O)NCCc3cccc(F)c3)C2)n1 (stereo not drawn) | -3.84
11 | CCCCCCC(O)(c1ccc(OC)cc1)C(CN1CCOCC1)c1ccccc1.Cl (stereo not drawn) | 5.12
12 | Cl.NCCOc1ccc(C23CC4CC(CC(C4)C2)C3)cc1 | 25.7
13 | COc1cc(C)c(Cl)cc1S(=O)(=O)NC1CC(C)(C)NC(C)(C)C1 | 18.6
14 | O=C(c1ccccc1Cc1ccccc1)N1CCN(S(=O)(=O)c2ccccc2)CC1 | -6.88
15 | CC(c1ccccc1C(O)(c1ccccc1)c1ccccc1)N(C)C (stereo not drawn) | -41.1
16 | CN(C)CCc1c[nH]c2ccc(C[C@H]3COC(=O)N3)cc12 | -5.24
17 | COc1ccccc1CCNC(=O)c1cc(-c2ccccn2)nc2ccc(Br)cc12 | 6.17
18 | CCOC(=O)NCCc1c(C)nc2c(c(C)nn2C(C)(C)C)c1C | -6.99
19 | Cn1c2c(c3cc([N+](=O)[O-])ccc31)CCCC2 | 4
20 | Cc1ccc(C)c(NC(=O)CCN2C(=O)c3ccccc3C2=O)c1 | 13.6
21 | O=C(Nc1c2c(nn1-c1ccccc1)CSC2)c1ccc(N2C(=O)CCC2=O)cc1 | 12.5

Row | Compound | hERG current change (%, negative = inhibition) at 10uM [%]
22 | CC(C)CN1CCC(=O)N([C@H](CN=[N+]=[N-])Cc2ccccc2)CC1 | -22.9
23 | COc1ccc(N2C(=O)CCC(C(=O)N3CCCCC3)C2c2ccc(F)cc2)cc1 (stereo not drawn) | 17.7
24 | C[C@]12CCC3C(CC[C@H]4C[C@H](N)CC[C@]34C)C1CC[C@H]2O.Cl (stereo partly drawn) | 13.7
25 | CCOC(=O)CN1C(=O)/C(=C2\SC(=S)N(NC(=O)c3cccnc3)C2=O)c2ccccc21 | 11.5
26 | O=C(NCc1ccco1)C(c1cccs1)N(Cc1ccccc1)C(=O)Cn1nnc2ccccc21 (stereo not drawn) | -10.6
27 | COc1ccc(Nc2cc(Nc3cccc(OC)c3)ncn2)cc1 | 19.9
28 | CCOc1ccc(NS(=O)(=O)c2ccc(C(=O)N(C)Cc3cccc(OC)c3OC)cc2)cc1 | 6.95
29 | COc1cccc(/C=N/NC(=O)CSCC(=O)Nc2ccccc2)c1O | 0.503
30 | Oc1ccc(/C=N/N2CCCCC2)c(O)c1O | 13.3
31 | CCC(C)(C)n1nnnc1CN(Cc1ccco1)Cc1cc2cc3c(cc2[nH]c1=O)OCO3 | -2.83
32 | O=C(O)c1cn(-c2ccccc2)nc1-c1ccc(Cl)cc1 | -0.485
33 | CCC(=O)Nc1cccc(C(=O)/C=C/c2cccs2)c1 | -3.34
34 | CCc1nc(SCC(=O)NCC2CCCO2)c2oc3ccccc3c2n1 (stereo not drawn) | -20
35 | COC(=O)C(Cc1ccc(OC(=O)c2ccc(C(F)(F)F)cc2)cc1)N1Cc2ccccc2C1=O (stereo not drawn) | 15.9
36 | CCc1ccc(NC(=O)C(=O)NCc2ccccn2)cc1 | 5.21
37 | O=C(O)c1ccc2c(c1)N(Cc1ccccc1)C(=O)c1ccccc1S2 | -1.04
38 | COC(=O)Cc1[nH]nc2c1C1(C(=O)N(Cc3ccc(Cl)cc3)c3ccccc31)C(C#N)=C(N)O2 (stereo not drawn) | -1.3
39 | COc1ccccc1-n1c(SCC(=O)N2CCOCC2)nc(O)c(Cc2ccccc2)c1=O | 17.4
40 | O=C(C1=C(O)C(=O)N(Cc2cccnc2)C1c1ccccn1)c1cccs1 (stereo not drawn) | 17.9
41 | COc1ccccc1NC(=S)NCCc1ccc(OC)c(OC)c1 | 11.5
42 | O=C(c1ccc(F)cc1)N1CCN(C(=O)c2ccc([N+](=O)[O-])cc2)CC1 | -63.2

Row | Compound | hERG current change (%, negative = inhibition) at 10uM [%]
43 | CC(NCc1ccc(OCc2ccc(Cl)cc2)cc1)C(O)c1ccccc1.Cl (stereo not drawn) | -62.5
44 | O=S(=O)(c1ccc(-c2csc(-c3cccnc3)n2)cc1)N1CCCC1 | -4.98
45 | CCN(C(=O)CN1C(=O)S/C(=C\C=C\c2ccccc2)C1=O)C1CCS(=O)(=O)C1 (stereo not drawn) | 15.3
46 | CN(C)S(=O)(=O)c1cc(NC(=O)COC(=O)c2ccc3c(c2)OCO3)ccc1Cl | 25
47 | COc1ccc(-c2[nH]ncc2Oc2ccccc2OC)c(O)c1 | -11.3
48 | O=C(/C=C(/c1ccc(Cl)cc1)n1cncn1)c1ccccc1 | -27.5
49 | O=C(NCC1CCCO1)c1ccccc1NS(=O)(=O)c1ccc(F)cc1 (stereo not drawn) | 1.91
50 | Cl.O=C(CS(=O)(=O)c1ccccc1)N(CCCN1CCOCC1)c1nc2c(F)cccc2s1 | -44.9
51 | O=[N+]([O-])c1cc([N+](=O)[O-])c(Oc2cc(F)cc(F)c2F)cc1NN1CCCCC1 | 15.1
52 | COc1ccc(NC(=O)Nc2cccc(NC(C)=O)c2)c(OC)c1 | 23.5
53 | CCOC(=O)[C@H]1[C@H]2COc3cc(OC)ccc3[C@@H]2N2C(=O)N(c3ccc(Br)cc3)C(=O)[C@@]12C | 3.98
54 | O=C(COc1ccc(S(=O)(=O)N2CCOCC2)cc1Cl)NCc1ccco1 | -9.84
55 | O=C(COC(=O)c1ccccc1[N+](=O)[O-])Nc1cc(S(=O)(=O)N2CCOCC2)ccc1N1CCCC1 | -25.6
56 | CC(/C=C/C1[C@H](C)C[C@H](O[C@@H]2O[C@H](CO)[C@@H](O)[C@H](O)[C@H]2O)CC1(C)C)O[C@H]1O[C@H](CO)[C@@H](O)[C@H](O)[C@H]1O (stereo partly drawn) | 6.99
57 | O=C(CSc1nc2ccccc2o1)N1CCN(c2ccc(Cl)cc2)CC1 | 11.2
58 | CCNc1[nH]c(=O)n(C)c(=O)c1N=O | 12.5
59 | CN(C)C(=O)CSc1nnc(Cc2ccccc2)n1CC1CCCO1 (stereo not drawn) | 20.3
60 | COc1c2occc2c(OC)c2c(=O)cc(C(F)(F)C(F)(F)F)oc12 | 1.22
61 | CC(=O)Nc1cccc(C(=O)OCC(=O)Nc2ccc(Cl)cn2)c1 | 17.4
62 | CCOC(=O)C1(Cc2ccccc2Cl)CCN(S(C)(=O)=O)CC1 | -0.757
63 | O=C(Cc1ccc(Br)cc1)N1CCOCC1 | 13.6

Row | Compound | hERG current change (%, negative = inhibition) at 10uM [%]
64 | CCc1nccn1S(=O)(=O)c1cc(OC)ccc1OC | 2.62
65 | O=C(c1ccc2nc(Cc3ccccc3F)oc2c1)N1CCCC1 | 14
66 | CCc1ccc(CN(C)C(=O)c2cc(=O)c3ccccc3o2)cc1 | -66.4
67 | COc1ccc(C(=O)Nc2ccc(CN3CCS(=O)(=O)CC3)cc2)cc1 | 15
68 | CC(=O)NN1C(=O)/C(=C/c2ccc(Br)o2)SC1=S | 2.1
69 | Cc1ccc(/C=N/n2c(-c3cccnc3)n[nH]c2=S)o1 | 6.56
70 | COc1ccc(SCCN2CCN(CC(C)C)CCC2=O)cc1 | -42.9
71 | Nc1nc(Nc2ccccc2F)nc(NCc2ccco2)c1[N+](=O)[O-] | -6.47
72 | COc1ccc(OCC(=O)NC(=S)Nc2ccc(N3CCOCC3)c(Cl)c2)cc1 | 1.48
73 | Cc1cc(NC(=O)c2cc(-c3ccccc3Cl)nc3ccccc23)no1 | -0.229
74 | c1ccc2c(c1)CCN(c1ncnc3nc[nH]c13)C2 | 12.1
75 | COc1ccc(OC)c(C(C)NC(=O)c2ccc(Br)cc2)c1 (stereo not drawn) | 0.479
76 | Cc1cccc(NC(=O)C2(c3cccs3)CCOCC2)c1 | -3.86
77 | Oc1cccnc1Sc1cccc(C(F)(F)F)c1 | 18.6
78 | CC[C@@H](C(=O)n1nc(C)cc1C)[C@H](NS(=O)(=O)c1ccc(C)cc1)c1ccccc1 | 6.96
79 | NC(=O)C(CC(=O)O)NC(=O)[C@@H]1CCCNc2c(I)cc([N+](=O)[O-])cc2C(=O)N[C@@H](CO)C(=O)N[C@@H](Cc2ccc(O)cc2)C(=O)N1 (stereo partly drawn) | 8.02
80 | CCC(CC)C(=O)c1c[nH]c(C(=O)N2CCN(c3ccc(OC)cc3)CC2)c1 | -0.858
81 | Cc1ccccc1OCC(O)CN1CCCCC1.Cl (stereo not drawn) | 9.68
82 | Cc1ccccc1S(=O)(=O)Cc1ccc(C(=O)NCCN2CCCCC2C)o1 (stereo not drawn) | -39.3
83 | CN1CCN(C(=O)CCN2C(=O)c3ccccc3C2=O)CC1 | 14.7
84 | Cc1cc(OC(=O)c2ccc(S(=O)(=O)N3CCCC3)cc2)c([N+](=O)[O-])c(=O)[nH]1 | 6.47
